# Experimental data from the supplement of paper PMC3334620.
# Over roughly 33,000 sequences, “E-score (-0.5 to 0.5)” has its median near -0.035; the highest 2% begin near 0.35. The list shows a part of the results.
# Target: T1, Pdr3 (UniProt P33200)
# T1 sequence: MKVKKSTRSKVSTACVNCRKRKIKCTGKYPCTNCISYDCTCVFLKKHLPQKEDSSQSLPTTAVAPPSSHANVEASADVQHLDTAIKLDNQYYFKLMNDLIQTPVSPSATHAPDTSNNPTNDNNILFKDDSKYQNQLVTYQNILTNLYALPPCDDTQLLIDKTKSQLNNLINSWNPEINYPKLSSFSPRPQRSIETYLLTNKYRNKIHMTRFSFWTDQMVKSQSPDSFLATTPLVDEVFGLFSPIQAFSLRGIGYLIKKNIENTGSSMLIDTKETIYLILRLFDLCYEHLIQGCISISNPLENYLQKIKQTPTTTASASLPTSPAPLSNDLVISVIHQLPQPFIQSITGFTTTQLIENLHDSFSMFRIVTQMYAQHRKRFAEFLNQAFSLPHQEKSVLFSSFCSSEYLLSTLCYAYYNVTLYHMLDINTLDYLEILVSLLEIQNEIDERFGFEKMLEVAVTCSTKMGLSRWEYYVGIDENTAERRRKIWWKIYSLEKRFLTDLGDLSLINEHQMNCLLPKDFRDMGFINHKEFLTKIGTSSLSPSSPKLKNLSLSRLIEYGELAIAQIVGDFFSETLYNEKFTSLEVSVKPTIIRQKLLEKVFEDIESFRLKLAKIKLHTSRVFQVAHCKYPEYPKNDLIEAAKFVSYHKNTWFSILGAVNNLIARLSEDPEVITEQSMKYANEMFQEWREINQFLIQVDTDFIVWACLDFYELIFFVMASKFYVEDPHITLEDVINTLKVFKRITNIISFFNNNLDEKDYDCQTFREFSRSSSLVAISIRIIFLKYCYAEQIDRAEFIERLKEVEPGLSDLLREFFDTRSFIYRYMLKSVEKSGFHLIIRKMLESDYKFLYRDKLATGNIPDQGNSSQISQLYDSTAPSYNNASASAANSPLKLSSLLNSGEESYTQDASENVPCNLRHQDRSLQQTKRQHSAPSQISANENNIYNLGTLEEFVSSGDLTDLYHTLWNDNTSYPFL
# Test: PBM E-score (8-mer binding enrichment) (E-score (-0.5 to 0.5)); higher = stronger / more preferred TF binding; most listed sequences are background and not binding sites
# Details: protein concentration: 200 nM; construct: GST-full length
# Method in brief: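 Yeast transcription factors carrying a GST tag, as full-length proteins or DNA-binding domains, were produced by PURExpress in vitro transcription/translation. About 100-200 nM protein was applied to universal all-10-mer Agilent arrays, double-stranded by primer extension on fresh or once-stripped slides. Bound protein was detected with fluorescent anti-GST, and scans were normalised with masliner. The Universal PBM Analysis Suite gave each ungapped eight-base word, pooled with its reverse complement, an E-score, a modified Wilcoxon-Mann-Whitney statistic.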
row,Sequence,PBM E-score
1,ATGCCTTG,-0.197
2,CCAGGGCG,0.0977
3,AATATAGG,0.0479
4,TCGAACAA,0.0601
5,CGTGGGAC,0.0628
6,CTGGCTCA,-0.0417
7,GCGGGTCC,0.243
8,GCTATTCC,0.243
9,CGTCCTTA,-0.107
10,AAAGAGCG,-0.00641
11,AACAAGCC,-0.18
12,GCCCCACA,-0.1
13,ATCGTCGC,-0.103
14,CAGCGCGG,0.238
15,ATCCTCCG,0.2
16,GACAATAA,0.113
17,CTAGTAAC,-0.114
18,CGACACTC,0.0775
19,ACCTCCTC,-0.205
20,CGCATCGC,-0.0738
21,GAATCTCC,0.225
22,CCCTTCTC,-0.24
23,CTTGTGTA,-0.0731
24,CCGAAAGA,0.23

row,Sequence,PBM E-score
1,CACCGGTG,0.0753
2,ATTGATGG,-0.0929
3,CGACGGAG,0.331
4,CCTACGAA,-0.0554
5,GAAGGTCA,-0.19
6,CCGTTCAC,0.0894
7,AGACCCCT,-0.328
8,ATCAATGA,0.0606
9,GGCCCACC,0.0165
10,CGGACGAA,0.372
11,ACGGGCCC,0.264
12,GGACTTGA,0.00562
13,ATTCTTGG,0.11
14,ATTAAACC,0.192
15,GACCCGCA,0.0817
16,CCTACTCC,-0.0705
17,GCGCTCCA,0.0949
18,ACGTACTA,-0.116
19,CGATTCTC,0.0688
20,GAGGGGAA,0.156
21,ACCTTGGG,0.00858
22,AGGTGGCG,-0.1
23,TGTGTGAA,-0.0422
24,AGCAATAC,-0.0729

row,Sequence,PBM E-score
1,ACTTTCCG,0.417
2,ATCAATTA,0.131
3,AATCTTAT,-0.0413
4,AACATGTA,0.0311
5,TCTACAAA,-0.288
6,AATGTAGT,-0.0844
7,ACTTGAGA,-0.199
8,CATTGGTC,-0.0762
9,CACAAATC,-0.0493
10,AACGAAAG,-0.0735
11,GGGGTGGA,0.0716
12,AAAGTTCC,0.2
13,GTTTTCGA,-0.0845
14,CACCTCTC,-0.217
15,CTAAGATA,-0.0473
16,CAGTTCGG,0.204
17,ATGTGTCG,-0.0408
18,CGTGAGCC,-0.184
19,GAGCCGGC,0.324
20,TCATGAAA,0.0318
21,AGTTTATG,-0.105
22,ATTCCCCG,0.28
23,CACTGCTG,-0.185
24,CATTTGAG,0.041

row,Sequence,PBM E-score
1,AATTTCAT,-0.0192
2,CGGGACCA,0.264
3,AAAAAGCG,0.102
4,ACCGACAA,-0.0101
5,GGGGCTCA,-0.117
6,CACTTACA,-0.0745
7,CCCTATCC,0.0847
8,AAAGAAAT,-0.0304
9,GCTGTCGA,0.0218
10,CAACAGTA,-0.12
11,AATATTCA,0.0722
12,AAGTCCCA,-0.137
13,CTGAGTGA,0.179
14,AGTAGATC,-0.0054
15,GAGTTCCC,0.163
16,AGAGTATA,-0.259
17,ATGAGCCG,-0.0142
18,ACCTTCTG,0.0416
19,AGAGGAAT,-0.259
20,CAGTTCTC,0.116
21,GATGCGTA,-0.169
22,CAAGCTTG,-0.0679
